Laboratory results reported in the RNAGym collection of RNA variant scans (doi:10.1093/nar/gkz1192).
Read counts are not given, so values of variants with three or more changes are uncertain.

B1: CPEB3 Ribozyme (parent)
chain: UAACAGGGGGCCACAGCAGAAGCGUUCACGUCGCAGCCCCUGUCAGAUUCUGGUGAAUCUGCGAAUUCUGCUGUAUAUCUC

Variants of: B1
Assay: self-cleavage, relative activity (ratio to wild type); higher = more cleavage; in vitro, sequencing
Summary of the method: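 Libraries of CPEB3 self-cleaving ribozyme mutants came from rounds of error-prone PCR and carried barcodes, which DNA sequencing matched to variants. In vitro transcription used T7 RNA polymerase at 37°C for 5 hours, with a further 15 min in DNase I before EDTA stopped the reaction; the ribozymes cleaved during both steps. The RNA was reverse transcribed with template switching and sequenced on Illumina. Relative activity is the cleaved/total read fraction of a variant divided by that of the unmutated ribozyme, averaged over three batches with at least 5 reads.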

Variant | self-cleavage
A2G A15G A28C A57G U78C U80C | 0.04
A2G A15G U31A U54A | 0.48
A2G A15G U41A A56G U72C | 0.14
A2G A15G U54A | 0.71
A2G A15G U67C | 0.14
A2G A15G U72A U80C | 0.41
A2G A15U A21G U41C A45U U69C | 0.13
A2G A15U C37U U49C U74C | 0.07
A2G A15U U43C U54C U60A | 0.24
A2G A18C G33A U72C U74A | 0.39
A2G A18G A28G C68A U72C | 0.07
A2G A18G C39A | 0.32
A2G A18G G33A A35G U41A | 0.05
A2G A18G U25A U69C | 0.11
A2G A18G U67C | 0.07
A2G A18U A21G C27U U43A A45U U54C | 0.26
A2G A18U A45G U49A U69C | 0.11
A2G A18U A47G U66C U80C | 0.12
A2G A18U C23U A28G | 0.35
A2G A18U U25C U43A U51C U54C | 0.04
A2G A20C U67C | 0.14
A2G A20G C32U U41A A56U U72A | 0.06
A2G A20G G52U A56U U76C | 0.27
A2G A20G U49C | 0.56

Variant | self-cleavage
A2G A20U A21G U26A | 0.31
A2G A20U C29U C37A A47U | 0.25
A2G A20U U26C U60C G73C | 0.48
A2G A20U U43C U48C A56U | 0.04
A2G A20U U67C U69A | 0.11
A2G A21G A35G | 0.87
A2G A21G A56U A57G | 0.15
A2G A21G U26C | 0.47
A2G A21G U31A U80C | 0.77
A2G A21G U31C U69C | 0.21
A2G A21G U60A C62U | 0.23
A2G A21G U80A | 0.25
A2G A21G U80C | 0.97
A2G A28C A35G A65G U69A | 0.18
A2G A28G A35G U66C | 0.25
A2G A28G U51C U54A U67A U74C | 0.2
A2G A28G U69A U72C | 0.12
A2G A28U C29A U58G C68A U72C | 0.06
A2G A28U U41A C59A | 0.05
A2G A28U U43C A56C C62G | 0.31
A2G A28U U48C U51A U58A C71U U72A | 0.07
A2G A35C U41C U58A C81A | 0.33
A2G A35G U51C | 1.08
A2G A45C A56G | 0.09

Variant | self-cleavage
A2G A45G A47G U48C | 0.33
A2G A45G A57U U67G | 0.2
A2G A45G A77G | 0.49
A2G A45G A77U | 0.54
A2G A45G U51C A65G | 0.12
A2G A45G U51C G63A | 0.47
A2G A45G U67A | 0.22
A2G A45U U48C A57G | 0.54
A2G A47G A56G U72A | 0.44
A2G A47G U67C U69C U80C | 0.34
A2G A47G U74A | 0.74
A2G A57G U58C U78G | 0.26
A2G A64G C79A | 0.48
A2G A65U U69A U72G | 0.39
A2G C4U U25C | 0.63
A2G C4U U31C | 0.58
A2G C4U U60C G61A U72C U76C | 0.34
A2G C11A A13C G19A U54A A65U | 0.13
A2G C11G A20G U41C | 0.34
A2G C11G U25A A45C A47U U72C | 0.06
A2G C11G U26C U31C U43G | 0.05
A2G C11U A13G A15G U31A U43A G73A | 0.26
A2G C11U A35G A45U U48G A56U U76C | 0.04
A2G C12U A45G | 0.75

Variant | self-cleavage
A2G C14G A21G U66C C71A U76A | 0.08
A2G C17A U58A U72A | 0.17
A2G C23A A28G U41A U60A U76C | 0.05
A2G C23U C40A A65G | 0.04
A2G C23U U41C A64U | 0.34
A2G C29A U51C U72G | 0.11
A2G C29U C40U A77G | 0.06
A2G C29U U43C U69C C71U U72A U80C | 0.17
A2G C37U A57G U67C | 0.11
A2G C38U U54G C68U A77G | 0.31
A2G C40U U48A U60C | 0.04
A2G C40U U49C | 0.31
A2G C40U U51C | 0.67
A2G G6A A21G C27A A64U U69C U76C | 0.09
A2G G6C G52A | 0.11
A2G G7C U31C A35C C62A U74A | 0.52
A2G G7U G19U A21G U49C U76A | 0.14
A2G G7U U41C U60A U78C | 0.06
A2G G8A A45G U51A | 0.02
A2G G8A C32U U51C U66C U67A | 0.11
A2G G8A U25C U31A | 0.1
A2G G8C A21G G22A C23U U48C | 0.05
A2G G8C A45G U58A | 0.07
A2G G8U G30C | 0.07

Variant | self-cleavage
A2G G8U U58C | 0.19
A2G G9A A20G U54G A64G A65G | 0.05
A2G G9A C23G U66C U72C U76A | 0.04
A2G G9A U25C G36A | 0.06
A2G G9C A18G A20G A28G | 0.1
A2G G10A A15G C23G U72A | 0.04
A2G G10A A18C | 0.1
A2G G10A U26A A28G U66C | 0.08
A2G G10A U43A U72A A77U | 0.05
A2G G10C G19U U78C | 0.07
A2G G19A C37G U43A A47G U51C | 0.22
A2G G22U U41A G63A A64G A75C | 0.15
A2G G24A C59A U72C | 0.19
A2G G24A U41G A57G | 0.32
A2G G24U G52C U66C | 0.05
A2G G30A A45U A75C | 0.21
A2G G30A U31C G33A U74C | 0.1
A2G G30A U78C | 0.06
A2G G36A U41C | 0.5
A2G G36A U60A U74C | 0.25
A2G G36U U49C G53C | 0.18
A2G G42A A47G U49C | 0.35
A2G U25A U26A C37A U49C | 0.04
A2G U25A U31G U54A U60A | 0.47

Variant | self-cleavage
A2G U25A U41C A47U | 0.23
A2G U25C A28C G36A A75U | 0.22
A2G U25C A28G U41C | 0.2
A2G U25C A35G U54A | 0.7
A2G U25C C27A U31A A77G | 0.38
A2G U25C U43C | 0.11
A2G U25C U54C U66C | 0.62
A2G U26A C40U U48C G52A A64G U74C | 0.13
A2G U26A U31C U78C | 0.15
A2G U26A U49C | 0.08
A2G U26C A77U U78C | 0.3
A2G U26C G42C | 0.1
A2G U26C U54A | 0.47
A2G U26C U69C U76C A77U | 0.34
A2G U31C A35G A45U U67A U69A | 0.28
A2G U31C U54A A65G U72C | 0.16
A2G U31C U72A | 0.36
A2G U41C C44U U72C U80C | 0.58
A2G U41C C62U U69A | 0.2
A2G U41C U58G | 0.23
A2G U41G A65G | 0.34
A2G U41G U72C | 0.28
A2G U43A A64G U69A | 0.28
A2G U43A U48C U51C A57G | 1.13

Variant | self-cleavage
A2G U43C U74C | 0.71
A2G U43C U80C | 0.62
A2G U49A U54G A57G U58C U72A | 0.13
A2G U49C A57U | 0.89
A2G U51C U72C | 0.5
A2G U54C A57G U58A | 0.18
A2G U54C C68A U69A | 0.13
A2G U60G A77G | 0.17
A2U A3C U43A U72C | 1.11
A2U A3G A5G A13G C23U U69C U78C | 0.43
A2U A3G A28U U41G U54C U69A | 0.25
A2U A3G U54C A57G | 0.78
A2U A3U U25A U69A U76C | 0.23
A2U A5G A15G C27U G33C U43C U76C | 0.25
A2U A5G A15G U25G C27U G33C U76C | 0.26
A2U A5G A20G A64G | 0.18
A2U A5G G9A A18U U51C A56U | 0.06
A2U A5U A21G A47C U58C U72C | 0.19
A2U A5U A64G U74C | 1.36
A2U A5U U26C U43A U49C U67C U72C | 0.05
A2U A5U U60C | 0.32
A2U A13U A20U G33U U48C U49C A65G | 0.08
A2U A13U G33A U41C A77G | 0.25
